Consider 88 sequences from the supplement of paper PMC11417369.

The other results are listed elsewhere or left out.

The test relates to PfHDP1 homeodomain (GST-tagged). In words: gcPBM binding intensity (ln(normalized median fluorescence intensity)); higher = stronger DNA binding. Put shortly:
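The highest Masliner-normalised natural-log median intensity across replicate spots of either probe orientation is reported as binding intensity. GST-tagged P. falciparum DNA-binding domains expressed in E. coli were applied for 1 h to an Agilent 4 × 180k array of primer-extended double-stranded 36-bp intergenic genomic probes plus negative controls, and bound protein was detected with Alexa488 anti-GST antibody and scanned at 488 nm.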
On to “AAAAAAAGAAATAATAAAAAATATATATATATATAT [GTGCAC_negctrl_site702]”, for which the “gcPBM binding intensity (ln)” value came out at 9.39. Then “CGTACATAATTTTAATCACACACAAACAAACACATA [CACACA_site7947]”, with 7.11; and “TGTTTTGTTGTGTATTGTACTAATATAAATATATAA [XGTACX_site1852]”, with 6.94. Then “TAAAAAAACGCACTCGTACACACATATTTTCTTTCT [CACACA_site3090]”, with 7.28; and “TTTTATGATTGACACACACACAAAAAAAAAAAAAAA [CACACA_site7860]”, with 6.37; and “AAGACACAAAAACACACACACATACATACATACATA [CACACA_site454]”, with 6.9.

For the sequence “TATGTTGATGATGATAGTACATATGAGTTCAAAAAA [XGTACX_site7712]”, the “gcPBM binding intensity (ln)” value was determined as 6.55.

Regarding “TAAAAATATAGGTATACACACATATAAATATAAATA [CACACA_site7785]”, the “gcPBM binding intensity (ln)” value was found to be 6.38. “CTTATACATAAATTTTGTACACACAAAAAAAAAAAA [XGTACX_site2665]”: the “gcPBM binding intensity (ln)” value was 6.57. For the sequence “ATAAATATAAATATATGTACATATATATATATATAT [XGTACX_site7433]”, the “gcPBM binding intensity (ln)” value came out at 9.18.

Consider “GATTTTAAAATAATTACACACTTGATTATGTCCAAA [CACACA_site3491]”, for which the “gcPBM binding intensity (ln)” value was determined as 6.41.

On to “TAAATATTTATAAACACACAAATATTTATATTTATA [CACACA_site6166]”, for which the “gcPBM binding intensity (ln)” value is 6.08.

“TTTATTTATTAATACACACACACACGCCCACAAAAT [CACACA_site6253]”: the “gcPBM binding intensity (ln)” value was 7.3. For the sequence “AGGGACATATATATCACACACAAAAATTAGTCCCTT [CACACA_site2778]”, the “gcPBM binding intensity (ln)” value is 6.4. Then “AAATAGAGAAATACAAGTACATATCAAACCAATCTA [XGTACX_site2756]”, with 6.25.

With “ATGAATATAATGAAGTGTACATAAAAATAATAAATA [XGTACX_site2481]”, the “gcPBM binding intensity (ln)” value amounted to 6.95.

As to “ATACATATAGGATGCACACATAATTCAAATACAATA [CACACA_site651]”, the “gcPBM binding intensity (ln)” value stood at 8.83.

Regarding “TTTGAAATATATTTAGTGCATATATATTGATTATAA [GTGCAC_site9604]”, the “gcPBM binding intensity (ln)” value stood at 9.41. Next, “CAATTTTGCCCTTCCTGTACATATATTGAAAAATAT [XGTACX_site6388]”: 6.41. Next, “ATCTAGTACATACATACACACAACAATGTTATGAGA [CACACA_site3989]”: 6.6. Consider “GAAAGGGCAGGAACTATTAATACACTGATCGATAAG [CACACA_negctrl_site1458]”, for which the “gcPBM binding intensity (ln)” value came out at 6.53.

As to “AATTATAGCTGTATCTGTACGCATTTATTTATAGAC [XGTACX_site5959]”, the “gcPBM binding intensity (ln)” value was 6.35.

As to “TTAAATAATATTAGCCGTACAATTTAAAGATAATAA [XGTACX_site8503]”, the “gcPBM binding intensity (ln)” value stood at 6.26. Then “AAAAAAAAGTATGATTCTAAATTTATGTATATATAA [GTGCAC_negctrl_site669]”, with 6.1. Next, “TTTAATACTTTATATGCATGCAGAGAAAAATGCTTG [TGCATGCA_site286]”: 6.38.

In the case of “ATTGTTTTATATAGAACACACATAAAAATATATATG [CACACA_site1193]”, the “gcPBM binding intensity (ln)” value amounted to 6.3.

As for “ATAAAATGAAATATATATGTGTATGCTTAACTTGTT [CACACA_negctrl_site431]”, the “gcPBM binding intensity (ln)” value was 6.48. In the case of “AAAGGATGTAATATAAACATATATATGTATATATAT [TGCATGCA_negctrl_site347]”, the “gcPBM binding intensity (ln)” value was determined as 6.87. Next, “TAATTTTTTTTAATAACACACATATATATATATATA [CACACA_site813]”: 9.38; “TAATATTCCTTTTTAACACACATATGAACAAATAAA [CACACA_site153]”: 6.63. Then “ATATTAAACAGACACACACACATATATTTATTTATA [CACACA_site7564]”, with 6.78. Then “TATAGCATATCTCACACACACATAATGAATATTATA [CACACA_site5877]”, with 6.55. As to “TATAGCTATGTATTCACACATAATATAAACTTTAAT [CACACA_site5889]”, the “gcPBM binding intensity (ln)” value was determined as 6.31.

As for “AAAATGAACTCACGAGCACACACACCCATATATATA [CACACA_site8247]”, the “gcPBM binding intensity (ln)” value turned out to be 7.05.

“TGTATTATATAAAATTGTACATGCGAATTGTATAAC [XGTACX_site902]”: the “gcPBM binding intensity (ln)” value was 7.27. Then “AAATATTACCATGTGAAAATTTTACTGCAACATGAA [TGCATGCA_negctrl_site609]”, with 7.06. With “TAAAAATTTACATGTTGTACATATAATTATATAATC [XGTACX_site4577]”, the “gcPBM binding intensity (ln)” value turned out to be 6.4. Next, “AGGCTGCCATATTATACACACATTTTTAAAAAAATT [CACACA_site3843]”: 6.72; “TAGTTAGGCCCTACATGTACATAATATATATTACTT [XGTACX_site1137]”: 7.3. Next, “ATCAACATTACATTTAGTACACATATATTTCTATGT [XGTACX_site4436]”: 6.84; “CTAATTAATATTTGTACACACATATTTAACCTACTA [CACACA_site3191]”: 6.64. Then “TATATAAGTATAAAATGTACATAAAATTTTATGTTA [XGTACX_site2613]”, with 6.34; and “TAAAATTCGAAAAATTGTACTATTTATATATCTGTA [XGTACX_site6478]”, with 5.98. “ATAATTTCAATATTTAATATCATATATATATATTTT [GTGCAC_negctrl_site713]”: the “gcPBM binding intensity (ln)” value was determined as 6.41. Next, “TAAAACAAAACAAAAATAGGATTATATTCCTTTTTT [CACACA_negctrl_site1003]”: 5.9. Next, “ATATATATATATATATGTACATATGTGTATATAACT [XGTACX_site495]”: 9.41; “AAATAAAAAAATACCCAACACCATGCCAAATGTGAA [CACACA_negctrl_site411]”: 6.47. Next, “ACAAAATGTAAATAAACACACATATTTATATTTATA [CACACA_site6719]”: 6.24.

As for AATTCACCAAAAAAAGTGCATATTCAATATATATTA, the “gcPBM binding intensity (ln)” value was found to be 7.19. Next, “AATAAAATATTATGTGCATGCTGTTTTATTTATTAA [TGCATGCA_site102]”: 7.73; “TTGGTGGATAAATTTACACACAATAATTTTCGTTCA [CACACA_site467]”: 6.46. As to “AATATATATTAAATATGTACTTATTTTTTGGTTGCT [XGTACX_site3613]”, the “gcPBM binding intensity (ln)” value stood at 6.58. On to “CGCACCCACAGACACACACACACATATATATATATA [CACACA_site2202]”, for which the “gcPBM binding intensity (ln)” value was determined as 9.31.

As to “TACATACAGAAACACACACACACATATATATATATA [CACACA_site2919]”, the “gcPBM binding intensity (ln)” value is 9.13. Next, “AAAGAATAATTAAATACACACATATTACAGTAAAAA [CACACA_site2450]”: 6.79; “AAAATATATTAAGGCACACACATACATATTTATATA [CACACA_site7707]”: 6.72.

Consider “AGATCAATAATGACAAGTACACAAAATAACATTTAA [XGTACX_site6968]”, for which the “gcPBM binding intensity (ln)” value is 6.22.

For the sequence “ACAAAAAAAAAAAAAAAAAAAAAAAAAAAATAATAA [CACACA_negctrl_site1640]”, the “gcPBM binding intensity (ln)” value turned out to be 5.72. Next, “ATTTTGTAAAAGGTCATACACACATATTCAAAAGAA [CACACA_site2946]”: 6.49. With “AAAAATCATATAGGTTGTACGGGTAGTTTATTTTAT [XGTACX_site6936]”, the “gcPBM binding intensity (ln)” value was 6.59. Next, “GTGTATATATGTTATACACACAAAAATATTTTGTAT [CACACA_site265]”: 6.73; “TTATATATGACTAACGGTTTTTTTTTTTTTTTTTTT [CACACA_negctrl_site576]”: 6.79; “ATATGAAGTATCGAATTAAGGGCAACAAATAAATTA [CACACA_negctrl_site1116]”: 6.37.

Take “TTATTATATAAAGTTTCACACATTATTTGTTCAAAC [CACACA_site5218]”: the “gcPBM binding intensity (ln)” value came to 6.26.

For “TACATATATAAATATGTACACACATATGTATGATCT [CACACA_site9284]”, the “gcPBM binding intensity (ln)” value was determined as 6.52. Take “AATATAAGCAAATACACACACACATATAAATATGTA [CACACA_site7741]”: the “gcPBM binding intensity (ln)” value was determined as 7.03. Turning to “AAAAAAATAATATAAATAATGAAAAGATATAAATAA [GTGCAC_negctrl_site432]”, the “gcPBM binding intensity (ln)” value was determined as 6.33.

As for “TAATATCAATTTTTATGTACTTATATATATATATAT [XGTACX_site5879]”, the “gcPBM binding intensity (ln)” value turned out to be 8.9.

Regarding “AGTAGTCTGGAGAAGAGTACACAGTATCTGGTAACA [XGTACX_site2032]”, the “gcPBM binding intensity (ln)” value worked out at 6.02.

Take “ATTGAGAGAAAAAAATGTACTTGATCAAAATGGATA [XGTACX_site1649]”: the “gcPBM binding intensity (ln)” value came to 6.69. Then “TATATATATTTTATGTGTACTCAATGTTATAACGCA [XGTACX_site8360]”, with 6.76.

Take “AATAGAGTTGAATGCACACATACAAATTTTTAGTTT [CACACA_site3564]”: the “gcPBM binding intensity (ln)” value was determined as 8.97. Take “TGTACAGTATATACAACACACATTTGTATAAATATA [CACACA_site1002]”: the “gcPBM binding intensity (ln)” value came out at 6.59. Then “TGTACACCCAGAAATGCACACACATATATATATATA [CACACA_site8716]”, with 9.88; and “TGCATAATTAAAAATGGTACACTGTATTTATAATAT [XGTACX_site1575]”, with 6.38. Then “TATAAATTAAGATAACGTACATATAATAATATAAAC [XGTACX_site487]”, with 6.49; and “TCTTTTGCCCAAAAAGGTACACACCACAATTTAAAT [XGTACX_site1482]”, with 6.75. As for “TATTGTATGGTAGGATATGATGTTATTTGTTATAAT [CACACA_negctrl_site202]”, the “gcPBM binding intensity (ln)” value amounted to 6.49.

On to “ATATATATATCACGCACACACGAATTTTAAATATAT [CACACA_site5691]”, for which the “gcPBM binding intensity (ln)” value turned out to be 8.17. Then “TTATTTTTACAATTTTAATAATAATACTAAAACAAA [XGTACX_negctrl_site538]”, with 6.02. In the case of “TTCTATATAATTCAAACATGCACAGGAAATATTATA [TGCATGCA_site290]”, the “gcPBM binding intensity (ln)” value was 8.31. Then “AACAATGTTTTCTTGTGTACACATCATTAAAGAAAA [XGTACX_site4726]”, with 6.85. Next, “ATAATATATATATATACGCACACTTATGTACGGATT [CACACA_site2120]”: 6.85. Then “TATGTAACACATACTTGTACATATATAATTTTTTTA [XGTACX_site6251]”, with 5.98; and “AAGAAAAAAGGGGACAAGGCATATCTATATATACAT [TGCATGCA_negctrl_site172]”, with 6.15; and “ATACATATATATATATGTACATATGCACATATATAC [XGTACX_site7209]”, with 9.31. “TATATTTGTAAGAAGAGTACTAAAAAAAGAATAAAG [XGTACX_site8704]”: the “gcPBM binding intensity (ln)” value is 6.83. Next, “TTCCCTAATATTTGTTGTACTTGTTATATTTTTTTT [XGTACX_site5994]”: 6.99.
